This passage reports binding results from paper PMC10516938, “Conformational dynamics of cohesin/Scc2 loading complex are regulated by Smc3 acetylation and ATP binding” (Nature Communications, 2023).

The assay deals with T1, Scc1-PK (S. cerevisiae) (UniProt Q12158).
T1 sequence: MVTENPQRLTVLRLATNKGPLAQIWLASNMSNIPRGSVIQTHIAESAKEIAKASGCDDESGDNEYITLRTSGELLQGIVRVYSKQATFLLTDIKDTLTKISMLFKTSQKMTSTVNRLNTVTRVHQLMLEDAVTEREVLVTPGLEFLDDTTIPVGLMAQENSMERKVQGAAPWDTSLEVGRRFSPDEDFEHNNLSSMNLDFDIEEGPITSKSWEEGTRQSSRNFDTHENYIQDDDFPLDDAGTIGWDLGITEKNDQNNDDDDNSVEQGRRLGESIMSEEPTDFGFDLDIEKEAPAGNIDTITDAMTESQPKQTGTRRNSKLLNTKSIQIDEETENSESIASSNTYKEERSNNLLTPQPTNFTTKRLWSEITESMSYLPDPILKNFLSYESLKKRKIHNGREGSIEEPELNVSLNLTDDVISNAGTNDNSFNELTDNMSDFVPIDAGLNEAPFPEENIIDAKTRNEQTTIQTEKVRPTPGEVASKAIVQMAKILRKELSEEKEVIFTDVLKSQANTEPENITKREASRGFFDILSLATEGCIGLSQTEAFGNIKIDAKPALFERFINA
The assay can be described thus: co-IP; Scc1-PK immunoprecipitated with anti-PK from whole-cell extracts of cross-linker-treated yeast cells (exponentially grown or late G1 arrested); co-precipitated Smc3-HA, Smc1-Myc or Scc2-FLAG detected by western blot.

Numbering of substitutions follows the chain as printed. Names and notes keep the numbering of the source. These are yes or no findings as the source states them, for the method shown. In cells and extracts the contact can be indirect. Some results given as binding are weak or reduced against the parent protein; the word gives no strength. Where a sequence is shown, tags or fusion partners need not be part of it.

B1: Scc2-6xFLAG (protein, UniProt Q04002 1-1493)
chain: MSYPGKDKNIPGRIIEALEDLPLSYLVPKDGLAALVNAPMRVSLPFDKTIFTSADDGRDVNINVLGTANSTTSSIKNEAEKERLVFKRPSNFTSSANSVDYVPTNFLEGLSPLAQSVLSTHKGLNDSINIEKKSEIVSRPEAKHKLESVTSNAGNLSFNDNSSNKKTKTSTGVTMTQANLAEQYLNDLKNILDIVGFDQNSAEIGNIEYWLQLPNKKFVLTTNCLTKLQMTIKNITDNPQLSNSIEITWLLRLLDVMVCNIKFSKSSLKMGLDDSMLRYIALLSTIVLFNIFLLGKNDSNLHRESYIMEPVNFLSDLIESLKILTIEYGSLKIEFDTFQEALELLPKYIRNGPFLDDNVTAKLVYIFSDLLMNNDIEATTNIQFQSFWDNVKRISSDILVSLFGSFDQQRGFIIEELLSHIEKLPTKRIQKKLRKVGNQNIYITDFTFTLMSMLENINCYSFCNQMKDIAPENIDLLKNEYKKQEEFLFNIVEHINDTILERFFKNPSALRYVIDNFVQDLLLLISSPQWPVTEKILSSLLKRLLSVYSPSMQVSANIETICLQLIGNIGSTIFDIKCSTRDHEDNNLIKMINYPETLPHFFKSFEECIAYNETIKCRRSATRFLWNLRLGTILILEEYTKDAKEQIITVDNELKKILEQIKDGGLGPELENREADFSTIKLDYFSILHAFELLNLYDPYLKLILSLLAKDKIKLRSTAIKCLSMLASKDKVILSNPMVKETIHRRLNDSSASVKDAILDLVSINSSYFEFYQQINNNYNDDSIMVRKHVLRINEKMYDETNDIVTKVYVIARILMKIEDEEDNIIDMARLILLNRWILKVHEVLDQPEKLKEISSSVLLVMSRVAIMNEKCSQLFDLFLNFYLLNKEAHSKEAYDKITHVLTILTDFLVQKIVELNSDDTNEKNSIVDKQNFLNLLAKFADSTVSFLTKDHITALYPYMVSDEKSDFHYYILQVFRCTFEKLANFKQKFLYDLETTLLSRLPKMNVREIDEAMPLIWSVATHRHDTARVAKACSSCLSHLHPYINKANNEEAAIVVDGKLQRLIYLSTGFARFCFPKPSNDKIAFLQEGETLYEHITKCLLVLSKDKITHVIRRVAVKNLTKLCGNHPKLFNSRHVLHLLDKEFQSDQLDIKLVILESLYDLFLLEERKSVRNTGVNSTLSSNSILKKKLLKTNRVEFANDGVCSALATRFLDNILQLCLLRDLKNSLVAIRLLKLILKFGYTNPSHSIPTVIALFASTSQYIRHVAYELLEDLFEKYETLVFSSLSRGVTKAIHYSIHTDEKYYYKHDHFLSLLEKLCGTGKKNGPKFFKVLKRIMQSYLDDITDLTSTNSSVQKSIFVLCTNISNITFVSQYDLVSLLKTIDLTTDRLKEVIMDEIGDNVSSLSVSEEKLSGIILIQLSLQDLGTYLLHLYGLRDDVLLLDIVEESELKNKQLPAKKPDISKFSAQLENIEQYSSNGKLLTYFRKHVKDT
Take B1: the binding entry is “binds”.

B2: Scc2 D369C T1175C (natural protein, S. cerevisiae, UniProt Q04002 1-1493, looked up)
chain: B1 chain with D369C, T1175C
notes: Scc2, S. cerevisiae; source: S. cerevisiae W303, late G1 arrested cells, whole-cell extract
In the case of B2, the binding result is “binds”.
